Experimental findings from publication PMC10726135 are described below.

The other results are listed elsewhere or left out. At the low end of the ranking the order means little. The protein was read in a cell extract, so binding may be indirect.

This assay concerns the target T1, HNF4alpha8 (COS-7 nuclear extract) (UniProt P41235-5).
T1 sequence: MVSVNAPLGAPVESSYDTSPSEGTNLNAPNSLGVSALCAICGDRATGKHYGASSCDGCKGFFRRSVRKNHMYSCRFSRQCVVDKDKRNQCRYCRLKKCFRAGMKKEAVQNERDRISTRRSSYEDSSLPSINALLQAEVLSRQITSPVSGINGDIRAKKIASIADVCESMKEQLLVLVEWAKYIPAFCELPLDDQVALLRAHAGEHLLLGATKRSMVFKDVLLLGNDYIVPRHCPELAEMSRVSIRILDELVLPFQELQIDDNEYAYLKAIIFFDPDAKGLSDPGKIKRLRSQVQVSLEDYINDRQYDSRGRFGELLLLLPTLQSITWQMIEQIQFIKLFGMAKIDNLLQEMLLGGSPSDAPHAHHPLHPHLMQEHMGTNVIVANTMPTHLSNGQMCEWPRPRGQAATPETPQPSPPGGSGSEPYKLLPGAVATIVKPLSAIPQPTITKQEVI
Put plainly: protein-binding microarray. The settings on record: COS-7 nuclear extract on double-stranded Agilent 4x180k PBM; binding buffer, salt, pH and temperature not given; high values mean tight binding; double strand, one strand shown; sequences stand for … in …GCCTAGGGAGATTAGAGTATCGGTCGA
Regarding CCTTTGCCTCCACCTTCTCTCCCACTTATC, the binding signal (log2 normalized intensity) was found to be 0.941.

On to TCCAACCTTTGCTCACTTGGGGGTGGGGTG, for which the binding signal (log2 normalized intensity) amounted to 2.78.

As to ACAACCAGGGAGATGTGAGCGACCTTTGCA, the binding signal (log2 normalized intensity) was 4.55.

As to CCCATCAGCTGGGCTTGTTCAAATAACAGC, the binding signal (log2 normalized intensity) was -1.38.

For the sequence ACCTTTGTCCTCATTGAGCCCTCCCCTTGT, the binding signal (log2 normalized intensity) was determined as 4.38.

Turning to AAATCCCGAGCCAGAGCCAAAGGGCATATT, the binding signal (log2 normalized intensity) came out at 2.23.

For TAAGGTTCAAAGGGAAAAAATAATCAGCTT, the binding signal (log2 normalized intensity) is -1.12.

With AAAACCCATGGACCTGACACCCGCTGGCGC, the binding signal (log2 normalized intensity) is -1.22.

On to CTCGGGGATGGCATGTCTCTGGTCGGGGAG, for which the binding signal (log2 normalized intensity) was -0.939.

On to AAAGGCCACCACAAACCCTTCATCCAGCTG, for which the binding signal (log2 normalized intensity) is -1.42.

On to CTATTCAGGTATTTGCTCTGTGATAGCCTT, for which the binding signal (log2 normalized intensity) was found to be 0.476.

With GATGATCATGGCTCACTGCACCTTGACCTC, the binding signal (log2 normalized intensity) was determined as 8.12.

GGTGGACTTTCCCCCCTCACACTTTGGCTA: the binding signal (log2 normalized intensity) was found to be 4.24.

For the sequence CGATGTATACAGTATCTATAGTTATTGCAT, the binding signal (log2 normalized intensity) was -0.171.

Take AAGCTATTCACTTTTTGGCCTTTGGCTGTT: the binding signal (log2 normalized intensity) worked out at 3.01.

In the case of CTGGTCTTTGTCCTGGGAGAACAAACCTTA, the binding signal (log2 normalized intensity) turned out to be 1.01.

Take ACTTTGGCGTGCTGTGTACTTTGAACTGAA: the binding signal (log2 normalized intensity) came out at 6.92.

For the sequence CGGGCCCCAAGTGGCCATCTTCACGCAATA, the binding signal (log2 normalized intensity) was -1.36.

On to TCATAACACTTGTATGACCTTTGTTTTATT, for which the binding signal (log2 normalized intensity) turned out to be 5.08.

Turning to TGAATTAGTACCTCAATGCTATCTCCCAGT, the binding signal (log2 normalized intensity) turned out to be 0.716.

On to TGTAGGTAAGCACAAAGTACAGCTTTTTGT, for which the binding signal (log2 normalized intensity) was found to be 1.39.

With CCGGGGCGCCCTTTGTTCTCCGGGTTCTGC, the binding signal (log2 normalized intensity) worked out at 2.53.

With CGCGAGAGCCGAAGTCTCTCGCCGAGGCCC, the binding signal (log2 normalized intensity) was -1.3.

Turning to TTGTCAGATGAGGAAATTGAGGCTTAGCAG, the binding signal (log2 normalized intensity) was -1.32.

GATATTTAACCTTTGATCTGTAAGCTCTCT: the binding signal (log2 normalized intensity) was 5.39.

For the sequence AGAAAGTAGAACGGTGGTTGTCAGAGACTG, the binding signal (log2 normalized intensity) is -1.18.

As to TTAACACAGGACAAATCAAGTGAAATGCCA, the binding signal (log2 normalized intensity) is -1.28.

Regarding AGTGATAAGCAGAGGATGGGAATTAGGGAG, the binding signal (log2 normalized intensity) was -1.32.

With CTGCCTGTCTCACCTCGCTATCACCCCGAT, the binding signal (log2 normalized intensity) was 2.72.

In the case of CGAGATCAAGGGACAGAGATAACTGGGGGC, the binding signal (log2 normalized intensity) was -1.31.

With TGTGATGTTTGTAAACTGTCATGGTGCTGG, the binding signal (log2 normalized intensity) came to 1.25.

On to GTGTTGTGCTGACCTCCTGTCTCATCCTGT, for which the binding signal (log2 normalized intensity) came out at 1.98.

Turning to TCTGTTGGTGGCACAGGGAATGGCTCGTAT, the binding signal (log2 normalized intensity) is -0.108.

As to GTGAGGCATCTGGACCATTGCTGACCTTGC, the binding signal (log2 normalized intensity) turned out to be 3.69.

In the case of TTCCAAAGTTCAACCTCATTATCTTCAGTC, the binding signal (log2 normalized intensity) is 2.05.

Consider ACGATCAGCCAGCAGGGGGCGCAGAAGGGA, for which the binding signal (log2 normalized intensity) is -1.24.

On to ATGTGGGGAAACTGGACTGTAATTTGTGGT, for which the binding signal (log2 normalized intensity) is 1.34.

Turning to AGGTGTCAGGGGTCAATGTGCACATTCGAA, the binding signal (log2 normalized intensity) was 5.06.

On to GGAAGAGAAGACCAAACAACCAGGGAGATG, for which the binding signal (log2 normalized intensity) is -1.3.

Regarding GCGTATTTCAACCTTTGATCTATAACCACG, the binding signal (log2 normalized intensity) amounted to 5.51.
